{"source": "paper PMC6919601", "about": "“Identification of Plasmodium dipeptidyl aminopeptidase allosteric inhibitors by high throughput screening” (PLoS ONE, 2019)", "note": "Out of some 110,000 compounds screened, about 230 (0.21%) showed an effect of 50% or more. This is one part of the list.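 Also: 30 min substrate incubation versus DMSO and 10 µM JCP410 controls.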", "data": [{"biological_target": "DPAP1 (Plasmodium falciparum, UniProt Q8IIJ9)", "sequence (Q8IIJ9 whole entry, looked up)": "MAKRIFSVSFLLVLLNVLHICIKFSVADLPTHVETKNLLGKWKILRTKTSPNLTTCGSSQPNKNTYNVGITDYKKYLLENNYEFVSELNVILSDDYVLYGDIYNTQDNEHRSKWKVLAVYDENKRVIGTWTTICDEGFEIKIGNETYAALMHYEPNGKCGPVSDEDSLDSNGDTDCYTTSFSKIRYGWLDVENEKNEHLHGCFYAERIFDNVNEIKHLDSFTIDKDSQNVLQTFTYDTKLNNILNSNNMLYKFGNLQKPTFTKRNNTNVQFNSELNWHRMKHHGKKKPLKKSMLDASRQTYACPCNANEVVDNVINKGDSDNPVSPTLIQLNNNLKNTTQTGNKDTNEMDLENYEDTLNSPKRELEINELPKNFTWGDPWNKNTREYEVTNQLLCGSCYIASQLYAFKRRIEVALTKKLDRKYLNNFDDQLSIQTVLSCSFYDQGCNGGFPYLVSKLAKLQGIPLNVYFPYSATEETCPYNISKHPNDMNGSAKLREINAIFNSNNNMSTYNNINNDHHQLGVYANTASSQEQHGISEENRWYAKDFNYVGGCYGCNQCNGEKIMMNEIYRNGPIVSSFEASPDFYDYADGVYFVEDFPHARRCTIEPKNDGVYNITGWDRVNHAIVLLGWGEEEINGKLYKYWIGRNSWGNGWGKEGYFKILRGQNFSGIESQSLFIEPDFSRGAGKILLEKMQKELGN", "assay": "primary screen, percent inhibition; read by cleavage of a fluorogenic dipeptide substrate; higher = more effect of the substance", "design": "species or system P. falciparum D10 trophozoite lysates; single well", "units": {"% Inhibition @ 10 uM": "%"}, "values": [{"smiles": "Cc1c(C)n(C)c2ccc(C(=O)NCc3ccc(F)cc3)cc12", "% Inhibition @ 10 uM": 3.29}, {"smiles": "O=C1CC(N2CCN(c3ccccc3)CC2)C(=O)N1c1ccc(F)cc1", "note": "(stereo not drawn)", "% Inhibition @ 10 uM": 1.92}, {"smiles": "Cc1n[nH]c(C)c1C12CC3CC(CC(CC(=O)O)(C3)C1)C2", "% Inhibition @ 10 uM": -14.6}, {"smiles": "CCOC(=O)C1=C(C)N=c2s/c(=C\\c3ccco3)c(=O)n2C1c1ccccc1Cl", "note": "(stereo not drawn)", "% Inhibition @ 10 uM": -3.67}, {"smiles": "CC(C)Oc1ccc(C(=O)Nc2ccccc2)cc1", "% Inhibition @ 10 uM": 7.76}, {"smiles": "Cc1c2cnn(CC(=O)N3CCC(Cc4ccccc4)CC3)c(=O)c2c(C)n1Cc1ccccc1F", "% Inhibition @ 10 uM": -0.447}, {"smiles": "CC(=C/C(=O)O)/C=C/c1cccc2ccccc12", "% Inhibition @ 10 uM": 2.22}, {"smiles": "CCS(=O)(=O)C1=NN2C(=N)/C(=C\\c3ccc(-c4cccc(Cl)c4)o3)C(=O)N=C2S1", "% Inhibition @ 10 uM": -3.35}, {"smiles": "CC(C)Oc1ccccc1/C=C1/SC(N2CCOCC2)=NC1=O", "% Inhibition @ 10 uM": 8.7}, {"smiles": "COc1ccc(CNC(=O)CSc2nnc(N)s2)cc1", "% Inhibition @ 10 uM": 1.31}, {"smiles": "Cc1ccccc1C(=O)Nc1nc(-c2nnn(-c3ccccc3C)c2C)ns1", "% Inhibition @ 10 uM": -0.835}, {"smiles": "COc1ccc2nc(NC(=O)CSc3nc(C)cc(O)n3)sc2c1", "% Inhibition @ 10 uM": -2.74}, {"smiles": "CCS(=O)(=O)N1CCC2(CC1)OC(=O)C(C)=C2C(=O)NCc1ccccn1", "% Inhibition @ 10 uM": 2.24}, {"smiles": "CS(=O)(=O)c1ccc2nc(NC(=O)c3cccn(OCc4ccccc4)c3=O)sc2c1", "% Inhibition @ 10 uM": -1.66}, {"smiles": "Cc1ccc(C)c(CN2CCN(C)CC2)c1", "% Inhibition @ 10 uM": -9.49}, {"smiles": "COc1ccc(C2C(=O)N(CCc3ccccc3)CC(=O)N2Cc2cccs2)cc1", "note": "(stereo not drawn)", "% Inhibition @ 10 uM": 4.36}, {"smiles": "CCOC(=O)C1=C(C)N(C)C(=O)N(C)C1c1ccc(O)cc1", "note": "(stereo not drawn)", "% Inhibition @ 10 uM": -6.17}, {"smiles": "O=C(COc1ccc(Br)cc1Br)NCCc1ccccc1", "% Inhibition @ 10 uM": 0.035}, {"smiles": "Cc1cc(Nc2ccc(Cl)cc2)c2cccc(C)c2n1", "% Inhibition @ 10 uM": -6.22}, {"smiles": "Cc1ccc(Cl)cc1-n1nnnc1C1(Nc2ccccc2)CCCCC1", "% Inhibition @ 10 uM": -1.98}, {"smiles": "COc1ccc(-c2nc(CSCc3csc(C)c3C)c(C)o2)cc1OC", "% Inhibition @ 10 uM": 3.69}, {"smiles": "O=C(OCC(F)(F)F)c1nsc(Cl)c1Cl", "% Inhibition @ 10 uM": 3.73}, {"smiles": "CCN1CCN(C(=O)c2cc(-c3ccc(Cl)s3)nc3ccccc23)CC1", "% Inhibition @ 10 uM": -0.988}, {"smiles": "CNCC1COc2ccccc2O1", "note": "(stereo not drawn)", "% Inhibition @ 10 uM": 3.65}, {"smiles": "O=C(Cc1ccsc1-c1ccccc1)NO", "% Inhibition @ 10 uM": -0.415}, {"smiles": "CCOC(=O)N1CCN(C(=O)C(C)n2nc(C)n3c(cc4sccc43)c2=O)CC1", "note": "(stereo not drawn)", "% Inhibition @ 10 uM": 1.8}, {"smiles": "Cc1nn(-c2ccccc2)c(-n2cccc2)c1C(=O)NCCCN1CCN(C)CC1", "% Inhibition @ 10 uM": -1.58}, {"smiles": "N#Cc1c(N2C(=O)C3C4C=CC(C4)C3C2=O)sc2c1CCC2", "note": "(stereo not drawn)", "% Inhibition @ 10 uM": -4.12}, {"smiles": "CC(=O)C1=NN(c2ccc(Cl)cc2)C2C(=O)N(c3ccccc3Cl)C(=O)C12", "note": "(stereo not drawn)", "% Inhibition @ 10 uM": -1.28}, {"smiles": "COc1ccc(C)cc1NC(=O)c1nn(C)cc1Br", "% Inhibition @ 10 uM": 3.79}, {"smiles": "COc1ccccc1CNS(=O)(=O)c1ccc2c(c1)OCCO2", "% Inhibition @ 10 uM": 1.08}, {"smiles": "COc1ccc(C2C(C#N)=C(C)N=C3CC(c4ccccc4)CC(O)=C32)cc1", "note": "(stereo not drawn)", "% Inhibition @ 10 uM": -9.05}, {"smiles": "CN(C)c1nc(N)nc(Nc2ccccc2C#N)n1", "% Inhibition @ 10 uM": -6.52}, {"smiles": "CC(=O)NCCNC(=O)CCCCCNc1nc(S)nc2ccccc12", "% Inhibition @ 10 uM": 2.38}, {"smiles": "COc1cccc(/C=C2\\SC(=O)N(Cc3ccc(F)cc3)C2=O)c1O", "% Inhibition @ 10 uM": 11.2}, {"smiles": "Cc1ccc(C2CC(=O)N3CN(CCc4ccccc4)CSC3=C2C#N)cc1", "note": "(stereo not drawn)", "% Inhibition @ 10 uM": 64}, {"smiles": "CCOc1cc(C2CC(=O)N3CN(Cc4ccccc4)CSC3=C2C#N)ccc1O", "note": "(stereo not drawn)", "% Inhibition @ 10 uM": 19.8}, {"smiles": "CCCSC1=C(C#N)C(c2ccccc2)C(C(=O)Nc2ccccc2)=C(C)N1", "note": "(stereo not drawn)", "% Inhibition @ 10 uM": 1.42}, {"smiles": "COc1cccc(OC)c1C(=O)Nc1ccc(S(=O)(=O)NC23CC4CC(CC(C4)C2)C3)cc1", "% Inhibition @ 10 uM": 1.64}, {"smiles": "CC(C)CC(C(=O)NC1(C#N)CC1)c1cccc(-c2csc(N3CCN(CCO)CC3)n2)c1", "note": "(stereo not drawn)", "% Inhibition @ 10 uM": -8.26}, {"smiles": "O=C(O)CSC(=S)Nc1cccnc1", "% Inhibition @ 10 uM": 0.0598}, {"smiles": "CCOC(=O)C(=O)N1CC2(C)CNCC(C)(C1)C2=O", "% Inhibition @ 10 uM": -0.807}, {"smiles": "O=C(NCCO)Nc1ccc(Cl)c(Cl)c1", "% Inhibition @ 10 uM": -1.91}, {"smiles": "FC(F)(F)c1ccccc1CN1CCN(Cc2ccccc2)CC1", "% Inhibition @ 10 uM": -1.86}, {"smiles": "O=C(Nc1ccc2c(c1)C(=O)N(CC1CCCO1)C2=O)C(c1ccccc1)c1ccccc1", "note": "(stereo not drawn)", "% Inhibition @ 10 uM": 0.375}, {"smiles": "COc1cc(C2Nc3ccccc3N=C3CC(C)(C)CC(O)=C32)cc(Br)c1O", "note": "(stereo not drawn)", "% Inhibition @ 10 uM": -6.44}, {"smiles": "O=C(O)c1ccc(CN2CCN(c3ccc([N+](=O)[O-])cc3)CC2)cc1", "% Inhibition @ 10 uM": 3.16}, {"smiles": "O=C1NC(=O)C(=Cc2ccc(OCc3ccc(C(=O)O)cc3)c(Br)c2)C(=O)N1", "% Inhibition @ 10 uM": -4.35}, {"smiles": "O=C1c2ccccc2C(=O)C1(c1ccccc1)N1CCN(c2ccccn2)CC1", "% Inhibition @ 10 uM": -2.99}, {"smiles": "c1ccc(CN(Cc2ccccc2)c2ncnc3c2cnn3-c2ccccc2)cc1", "% Inhibition @ 10 uM": -0.357}, {"smiles": "COc1ccc(S(=O)(=O)Cc2ccc(C(=O)NC3CCCc4ccccc43)o2)cc1", "note": "(stereo not drawn)", "% Inhibition @ 10 uM": 0.718}, {"smiles": "CCSc1nc2sc3c(c2c(=O)n1Cc1ccccc1)CCCC3", "% Inhibition @ 10 uM": 1.4}, {"smiles": "COc1ccc2[nH]c3c(=O)n(CCCCC(=O)NCCc4c[nH]c5ccccc45)c(=S)[nH]c3c2c1", "% Inhibition @ 10 uM": 4.28}, {"smiles": "CC(C)CNC(=O)c1cc(-c2ccccc2)nc2ccccc12", "% Inhibition @ 10 uM": 0.146}, {"smiles": "O=C1Nc2ccccc2C12Nc1ccccc1S2", "note": "(stereo not drawn)", "% Inhibition @ 10 uM": -6.39}, {"smiles": "CCCCOc1cc(N(CC)CC)ccc1C=C1C(=O)NC(=O)NC1=O", "% Inhibition @ 10 uM": -2.07}, {"smiles": "O=C1c2ccccc2C(=O)N1CSc1ncccn1", "% Inhibition @ 10 uM": 1.63}, {"smiles": "CCOc1ccc(CNC(=O)Cn2ccc3cc(S(=O)(=O)N4CCC(C)CC4)ccc32)cc1", "% Inhibition @ 10 uM": -0.899}, {"smiles": "Cc1cc(C)c(C)c(OCCCn2ccnc2)c1", "% Inhibition @ 10 uM": 5.35}, {"smiles": "CN(C)c1ccc(C(c2c(O)ccc3ccccc23)N2CCOCC2)cc1", "note": "(stereo not drawn)", "% Inhibition @ 10 uM": 4.88}, {"smiles": "CC(C)(C)n1nc2c(c1NC(=O)c1ccc(Cl)cc1Cl)CS(=O)(=O)C2", "% Inhibition @ 10 uM": -4.65}, {"smiles": "COC(=O)c1ccc(OCC2c3cc(OC)c(OC)cc3CCN2C(=O)c2ccccc2OC)cc1", "note": "(stereo not drawn)", "% Inhibition @ 10 uM": 9.5}, {"smiles": "O=C(O)C1C2CCC(C2)C1C(=O)Nc1nc(-c2ccc(Br)cc2)cs1", "note": "(stereo not drawn)", "% Inhibition @ 10 uM": 13.9}]}]}
